# Source: the supplement of paper PMC8728848
# Some of the results follow.
# Experiments:
# Test in all cases: glycan array binding signal (z-score within array); higher = stronger binding
# Conditions in all cases: glycan notation: IUPAC condensed, linker removed
# [1] = biological target: Neu5Ac(a2-3)Gal(b1-4)[Fuc(a1-3)]GlcNAc(b1-3)Gal(b1-4)[Fuc(a1-3)]GlcNAc(b1-3)Gal(b1-4)[Fuc(a1-3)]GlcNAc
# Summary of the method: (§1)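 The Consortium for Functional Glycomics database supplied 3228 glycan arrays, of which those lacking an available protein sequence were dropped. The binding signal, a within-array Z-score, was averaged across arrays of the same protein sequence and across linkers. Negative scores can be read as non-binding.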
# [2] = biological target: Neu5Ac(a2-3)Gal(b1-4)[Fuc(a1-3)]GlcNAc6S
# Summary of the method: as §1
# [3] = biological target: Neu5Ac(a2-3)Gal6S(b1-4)GlcNAc
# Summary of the method: as §1
# [4] = biological target: Neu5Ac(a2-3)Gal6S(b1-4)[Fuc(a1-3)]GlcNAc
# Summary of the method: as §1
# [5] = biological target: Neu5Ac(a2-3)GalNAc
# Summary of the method: as §1
# [6] = biological target: Neu5Ac(a2-3)GalNAc(b1-4)GlcNAc
# Summary of the method: as §1
# [7] = biological target: Neu5Ac(a2-3)[GalNAc(b1-4)]Gal(b1-4)Glc
# Summary of the method: as §1
# [8] = biological target: Neu5Ac(a2-3)[GalNAc(b1-4)]Gal(b1-4)GlcNAc
# Summary of the method: as §1
# [9] = biological target: Neu5Ac(a2-3)[Neu5Ac(a2-6)]GalNAc
# Summary of the method: as §1
# [10] = biological target: Neu5Ac(a2-6)Gal
# Summary of the method: as §1
# [11] = biological target: Neu5Ac(a2-6)Gal(b1-4)Glc
# Summary of the method: as §1
# [12] = biological target: Neu5Ac(a2-6)Gal(b1-4)GlcNAc
# Summary of the method: as §1
# [13] = biological target: Neu5Ac(a2-6)Gal(b1-4)GlcNAc(b1-2)Man(a1-3)[Neu5Ac(a2-6)Gal(b1-4)GlcNAc(b1-2)Man(a1-6)]Man(b1-4)GlcNAc(b1-4)GlcNAc
# Summary of the method: as §1
# [14] = biological target: Neu5Ac(a2-6)Gal(b1-4)GlcNAc(b1-3)Gal(b1-4)GlcNAc
# Summary of the method: as §1
# [15] = biological target: Neu5Ac(a2-6)Gal(b1-4)GlcNAc(b1-3)Gal(b1-4)[Fuc(a1-3)]GlcNAc(b1-3)Gal(b1-4)[Fuc(a1-3)]GlcNAc
# Summary of the method: as §1
# [16] = biological target: Neu5Ac(a2-6)Gal(b1-4)GlcNAc6S
# Summary of the method: as §1
# [17] = biological target: Neu5Ac(a2-6)GalNAc
# Summary of the method: as §1
# [18] = biological target: Neu5Ac(a2-6)GalNAc(b1-4)GlcNAc
# Summary of the method: as §1
# [19] = biological target: Neu5Ac(a2-8)Neu5Ac
# Summary of the method: as §1
# [20] = biological target: Neu5Ac(a2-8)Neu5Ac(a2-3)Gal(b1-4)Glc
# Summary of the method: as §1
# [21] = biological target: Neu5Ac(a2-8)Neu5Ac(a2-3)[GalNAc(b1-4)]Gal(b1-4)Glc
# Summary of the method: as §1
# [22] = biological target: Neu5Ac(a2-8)Neu5Ac(a2-8)Neu5Ac
# Summary of the method: as §1
# [23] = biological target: Neu5Ac(a2-8)Neu5Ac(a2-8)Neu5Ac(a2-3)Gal(b1-4)Glc
# Summary of the method: as §1
# [24] = biological target: Neu5Ac(a2-8)Neu5Ac(a2-8)Neu5Ac(a2-3)[GalNAc(b1-4)]Gal(b1-4)Glc
# Summary of the method: as §1
# [25] = biological target: Neu5Ac(a2-8)Neu5Ac(a2-8)Neu5Ac(a2-8)Neu5Ac(a2-3)[GalNAc(b1-4)]Gal(b1-4)Glc
# Summary of the method: as §1
# [26] = biological target: Neu5Ac(b1-6)GalNAc
# Summary of the method: as §1
# [27] = biological target: Neu5Ac(b2-6)Gal(b1-4)GlcNAc
# Summary of the method: as §1
# [28] = biological target: Neu5Ac9Ac(a2-6)Gal(b1-4)GlcNAc
# Summary of the method: as §1
# [29] = biological target: Neu5Gc(a2-3)Gal(b1-3)GlcNAc
# Summary of the method: as §1
# [30] = biological target: Neu5Gc(a2-3)Gal(b1-3)[Fuc(a1-4)]GlcNAc
# Summary of the method: as §1
# [31] = biological target: Neu5Gc(a2-3)Gal(b1-4)Glc
# Summary of the method: as §1
# [32] = biological target: Neu5Gc(a2-3)Gal(b1-4)GlcNAc
# Summary of the method: as §1
# [33] = biological target: Neu5Gc(a2-3)Gal(b1-4)[Fuc(a1-3)]GlcNAc
# Summary of the method: as §1
# [34] = biological target: Neu5Gc(a2-3)Gal(b1-4)[Fuc(a1-4)]GlcNAc
# Summary of the method: as §1
# [35] = biological target: Neu5Gc(a2-6)Gal(b1-4)GlcNAc
# Summary of the method: as §1
# [36] = biological target: Neu5Gc(a2-6)GalNAc
# Summary of the method: as §1
binder,measurement,setting,value
T7P4 (Tuber borchii) (protein) GSHIGPYMSFYASSEDVRTIEEGGRTWLVGRARRADGSWQDIKLDLDNIIGNRDGHLTWGEQNFTQSASDIRFNFEGSNVPVLRAKLRNAAGGEQESDLNLGERLTNNNGDLVFN,glycan array binding signal (z-score),[1],-0.164
same,glycan array binding signal (z-score),[2],-0.137
same,glycan array binding signal (z-score),[3],-0.213
same,glycan array binding signal (z-score),[4],-0.174
same,glycan array binding signal (z-score),[5],-0.215
same,glycan array binding signal (z-score),[6],-0.218
same,glycan array binding signal (z-score),[7],-0.223
same,glycan array binding signal (z-score),[8],-0.222
same,glycan array binding signal (z-score),[9],-0.22
same,glycan array binding signal (z-score),[10],-0.223
same,glycan array binding signal (z-score),[11],-0.168
same,glycan array binding signal (z-score),[12],-0.209
same,glycan array binding signal (z-score),[13],-0.218
same,glycan array binding signal (z-score),[14],-0.221
same,glycan array binding signal (z-score),[15],-0.209
same,glycan array binding signal (z-score),[16],-0.212
same,glycan array binding signal (z-score),[17],-0.189
same,glycan array binding signal (z-score),[18],-0.223
same,glycan array binding signal (z-score),[19],-0.22
same,glycan array binding signal (z-score),[20],-0.136
same,glycan array binding signal (z-score),[21],-0.219
same,glycan array binding signal (z-score),[22],-0.138
same,glycan array binding signal (z-score),[23],-0.213
same,glycan array binding signal (z-score),[24],-0.217
same,glycan array binding signal (z-score),[25],-0.223
same,glycan array binding signal (z-score),[26],-0.223
same,glycan array binding signal (z-score),[27],-0.135
same,glycan array binding signal (z-score),[28],0.017
same,glycan array binding signal (z-score),[29],-0.188
same,glycan array binding signal (z-score),[30],-0.192
same,glycan array binding signal (z-score),[31],-0.135
same,glycan array binding signal (z-score),[32],-0.191
same,glycan array binding signal (z-score),[33],-0.217
same,glycan array binding signal (z-score),[34],-0.216
same,glycan array binding signal (z-score),[35],-0.215
same,glycan array binding signal (z-score),[36],-0.201
